About 4,300 (8.3%) of roughly 52,000 compounds were called active. Rule as the data show it: active = survival mostly below about 52% (no sharp cut-off); inactive = mostly above about 56%. This is one part of the list.

The test system of this test is DeltatarO mutant. Nature of the test: S. aureus survival, RN4220 and DeltatarO strains – OD600, teichoic acid synthesis inhibitors, primary screen (AID 463173). The conditions noted are these: S. aureus RN4220 wild type/DeltatarO growth, OD600, 18 h, active compounds read low, screened at 18.75 µg/mL (by protocol).
In the case of `CCOc1ccc(Nc2c(S(=O)(=O)c3ccc(C)cc3)cnc3ccccc23)cc1`, the survival is active: 43%. Consider `CCN1CCCC1CNCC(=O)Nc1ccc(C)c(Br)c1` (stereo not drawn), for which the survival was inactive: 93%. Take `Cc1ccc(-n2ncc3c(NCCc4ccccc4)ncnc32)cc1`: the survival is inactive: 87%.

Turning to `Cc1cc2oc(C(=O)N(Cc3ccccc3)C3CCS(=O)(=O)C3)cc(=O)c2cc1C` (stereo not drawn), the survival was inactive: 49%. The result for `Cc1ccccc1C(=O)Nc1ccccc1C(=O)OCc1cc(=O)n2nc(C3CC3)sc2n1` reads inactive: 120%; that for `O=C(NC1CCSC1=O)c1ccc(Br)cc1` (stereo not drawn), inactive: 92%. As for `CCc1ccc(-n2c(=O)c3cccnc3n2CC(=O)N(CC)c2cccc(C)c2)cc1`, the survival is inactive: 94%. Then `COc1cccc(C(=O)Nc2ccc3c(c2)CCCN3C(=O)c2cccs2)c1OC`, with inactive: 81%; and `Cc1ccc(NC(=O)CN2C(=O)C(c3ccccc3)=NC2(C)C)cc1C`, with inactive: 82%. The result for `Fc1ccc(-n2ncc3c(Nc4ccc(Oc5ccc(Cl)cc5)cc4)ncnc32)cc1` reads inactive: 77%. Take `CC1=C(C(N)=O)C(c2ccc(C(C)C)cc2)n2nc(SCc3ccccc3F)nc2N1` (stereo not drawn): the survival was inactive: 80%. The result for `CCn1cc2nc(SCc3cccc(C(F)(F)F)c3)n(CCc3ccccc3)c(=O)c2n1` reads inactive: 79%; that for `COCCn1c(-c2ccccc2)cnc1N`, inactive: 82%. The result for `CCOc1ccc(NC(=O)Cn2cnc3nc4c(cc3c2=O)CCCC4)cc1` reads inactive: 88%; that for `COc1ccc(CCNC(=O)Cn2c(C)c3cnn(-c4ccccc4)c(=O)c3c2C)cc1OC`, inactive: 81%; that for `Cc1c(CCNC(=O)c2ccc(C(F)(F)F)cc2)sc2nc(-c3ccc(F)cc3)nn12`, inactive: 81%. Then `COc1ccc(-c2cc(C)no2)cc1S(=O)(=O)Nc1cccc(C(F)(F)F)c1`, with inactive: 83%; and `COC(=O)c1c(NC(=O)c2ccc(S(=O)(=O)N3CCCCC3)cc2)sc2c1CCN(C)C2`, with inactive: 70%. Regarding `COc1ccc(CCNC(=O)CCCn2c(=O)c3ccccc3n(CC(=O)Nc3c(C)cc(C)cc3C)c2=O)cc1OC`, the survival is inactive: 82%. The result for `COC(=O)c1ccc(OC)c(Cn2c(=O)n(-c3cccc(Cl)c3)c(=O)c3c2c2cc(C)ccc2n3C)c1` reads inactive: 78%; that for `CCOC(=O)c1c(-c2ccc(C)cc2)csc1NC(=O)c1ccc(C(C)(C)C)cc1`, inactive: 53%. The result for `CCc1ccc(NC(=O)CCS(=O)(=O)c2ccc3c(c2)oc(=O)n3C)cc1` reads inactive: 90%. Then `N#CCC(=O)N1CCCCCC1`, with inactive: 84%; and `Cc1ccc(-n2c(SCc3nc(-c4ccccc4C)no3)nnc2-c2ccncc2)cc1C`, with inactive: 100%.

Take `Cc1cccc(-c2nc3sc(C)cc3c(=O)o2)c1`: the survival is inactive: 94%.

With `Cc1ccc(N2CC(c3nnc(Cc4ccc(F)cc4Cl)o3)CC2=O)cc1` (stereo not drawn), the survival is inactive: 57%.

For the compound `CCCCNC(=O)c1ccc(-c2nc(CS(=O)(=O)c3ccc(C)cc3)c(C)o2)cc1`, the survival is inactive: 75%. Consider `CC1=C(c2ccc(Cl)cc2)S(=O)(=O)N=C1N1CCN(c2cccc(C)c2)C(C)C1` (stereo not drawn), for which the survival was inactive: 89%. The result for `COC(=O)CNC(c1ccccc1)c1cc(Br)ccc1NC(=O)c1cc(OC)c(OC)c(OC)c1` (stereo not drawn) reads inactive: 66%; that for `Cc1ccc(-c2csc(=Nc3ccccc3)n2CCCO)cc1`, active: 5%. Then `CCOC(=O)c1ccc(NC(=O)Cn2nnc(-c3ccc(C(F)(F)F)cc3)n2)cc1`, with inactive: 87%; and `CNC(=O)c1ccc(NC(=O)c2nsc3ccccc23)cc1`, with inactive: 48%; and `CCOC(=O)c1ccc(OCC2c3cc(OC)c(OC)cc3CCN2C(=O)Cc2ccc(OC)c(OC)c2)cc1` (stereo not drawn), with inactive: 79%.

Turning to `COc1ccc2c(c1)c(N1CCCC1=O)c(C(=O)Nc1ccc(Cl)cc1C)n2C`, the survival was inactive: 124%. In the case of `CCN1Cc2cccc(C(=O)Nc3ccc(F)cc3)c2C1=O`, the survival is inactive: 129%. Take `Cc1ccc(-n2nnc(-c3nsc(NC(=O)c4ccc(C)c(C)c4)n3)c2C)cc1`: the survival was inactive: 128%.

For `CCc1ccc(CNC(=O)CCn2c(=O)c3cccn3c3ccc(F)cc32)cc1`, the survival was inactive: 91%. The result for `COc1cccc(=O)c2c(C)oc(C)c12` reads inactive: 95%; that for `CCN(CC)c1ccc(/C=N/NC(=O)CC(C)C)cc1`, inactive: 74%. With `N#Cc1ccccc1CNCc1cccs1`, the survival is inactive: 78%. Then `O=C(Nc1ccc(F)c(F)c1)C1CCCN1S(=O)(=O)c1cccc2nsnc12` (stereo not drawn), with inactive: 89%. The result for `CCOc1ccccc1NC(=O)COc1ccc(S(=O)(=O)NC2CCCCC2)cc1` reads active: 48%; that for `CCc1ccc(-n2c(CCC(=O)O)ccc2-c2ccc(F)cc2)cc1`, active: 29%; that for `COc1ccc(S(=O)(=O)N(CC(=O)Nc2cccnc2)c2ccc(C)cc2)cc1OC`, inactive: 74%.

In the case of `COc1cc2c(=O)n(CCC(=O)NCC3CCCO3)c(=O)n(CC(=O)Nc3ccc(F)cc3)c2cc1OC` (stereo not drawn), the survival is inactive: 136%. Then `Cc1ccc(O)c(NC(=O)CCS(=O)(=O)c2nc(-c3ccc4c(c3)OCO4)cc(C(F)(F)F)n2)c1`, with inactive: 64%. Then `CCN(CC)NC(=S)Nc1ccccc1`, with inactive: 105%; and `COc1cccc(C(=O)N2CCN(Cc3cccc(C)c3)CC2)c1OC`, with inactive: 68%. The result for `CS(=O)(=O)N1CCc2cc(C(=O)Nc3cccc(F)c3)ccc21` reads inactive: 68%. In the case of `COc1ccccc1CC(=O)Nc1ccc2nc(N3CCC(C)CC3)cc(C)c2c1`, the survival was inactive: 61%. The result for `Cc1ccc(C)c(Cn2c3ccccc3c3cnn(CC(=O)NC(C)c4ccccc4)c(=O)c32)c1` (stereo not drawn) reads inactive: 76%; that for `COc1cccc2sc(N3CCN(C(=O)CCS(=O)(=O)c4ccc(F)cc4)CC3)nc12`, inactive: 66%; that for `CCCS(=O)(=O)N1CCC(n2c(C(F)(F)F)nc3cccnc32)CC1`, inactive: 93%. The result for `Cc1ccc(CNC(=O)C(=O)NCC(c2cccnc2)N2CCN(c3ccccc3F)CC2)cc1` (stereo not drawn) reads inactive: 66%. As to `Cc1ccsc1CN(C(=O)c1oc2ccccc2c1C)C1CCS(=O)(=O)C1` (stereo not drawn), the survival was inactive: 80%. Then `COc1cccc(C=Nc2cnn(C)c2C(N)=O)c1O`, with inactive: 106%.

Regarding `CCn1c(=O)c2sccc2n2c(CCC(=O)Nc3ccc(OC)c(Cl)c3)nnc12`, the survival is inactive: 89%. The result for `Cc1ccc(C(=O)Nc2nc(-c3ccccc3)ns2)cc1` reads inactive: 59%.

Source of the values: PubChem BioAssay AID463173 (ICCB-Longwood Screening Facility, Harvard Medical School, 2010).
